Test results published in PubChem BioAssay AID1345082 (National Center for Advancing Translational Sciences (NCATS), 2018).
Screen size: about 94,000 compounds; about 4,000 (4.3%) were called active. Inconclusive means that the source gave no clear call. Such entries were picked first, then a sample of the others. The call rests on the fitted dose curve; in most records, active means well fitted inhibition curve with a large enough effect; inconclusive means small, poorly fitted or top-dose-only effect; inactive means no such curve, though single readings can be large or run the other way. A potency beside an inconclusive call is a rough fit, not a confirmed value.

Assay: Cytotoxic Profiling in NIH 3T3 Cell Line of Diverse Libraries Using Quantitative High-Throughput Screening; further: nearly all actives have a fitted effect of over 55% in size
Details: NIH 3T3 viability, CellTiter-Glo ATP luminescence, 48-72 h; series mostly up to 96.7 µM
Procedure, shortened: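 ATP-dependent luminescence (CellTiter-Glo) served as the viability signal for NIH 3T3 cells treated with compound for 48 or 72 hr at 37 °C.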
Potency means the concentration at half of the fitted maximal effect; tags describe the fitted curve by direction and shape.

Row | Structure (SMILES) | Potency
1 | COc1cncc(-c2cc3c(cc2OC)C2(CCN(C(C)=O)CC2)C(=O)N3)c1 | active: 31.6 µM
2 | COc1cc2c(cc1OC1CCCC1)NC(=O)C21CCN(Cc2cccc(O)c2)CC1 | active: 25.1 µM
3 | Cn1nc(C2CCCCC2)cc1[C@H]1CN2CC[C@H]1C[C@@H]2CNC(=O)c1ccc2c(c1)OCO2 | inconclusive: 79.4 µM [inhibitor, partial curve, poor fit]
4 | Cc1ccsc1C(=O)N1CCC2(CC1)NCc1ccccc1-n1ccnc12 | active: 28.2 µM
5 | COc1ccc(NC(=O)N2[C@H]3CC[C@@H]2c2cnc(C)nc2C3)cc1F | inactive
6 | CN1CCCC12Cc1ccccc1CN(C(=O)Cc1cccc(Cl)c1)C2 (stereo unspecified) | inconclusive: 70.8 µM [inhibitor, single point]
7 | CN(Cc1ccccc1)C[C@H]1CN2CC[C@H]1C[C@@H]2CNC(=O)Nc1cccc(C#N)c1 | active: 100 µM
8 | O=[S+]1([O-])NCC2(CCN(CC3CCCC3)C2)Oc2ncccc21 (stereo unspecified) | inconclusive: 70.8 µM [inhibitor, single point]
9 | CC[C@H]1CN2CC[C@H]1C[C@@H]2CNCc1ccc(SC)cc1 | inconclusive: 100 µM [inhibitor, partial curve]
10 | CCC(CC)c1cc([C@H]2CN3CC[C@H]2C[C@@H]3CO)nc(-c2ccncc2)n1 | active: 112 µM
11 | COc1ccc(-c2cc([C@H]3CN4CC[C@H]3C[C@@H]4CNS(=O)(=O)c3ccc(NC(C)=O)cc3)n(C)n2)cc1 | inconclusive: 89.1 µM [inhibitor, single point]
12 | O=C(C1CC1)N1[C@H]2CC[C@@H]1c1cnc(-c3ccc(F)cc3)nc1C2 | inconclusive: 12.6 µM [inhibitor, partial curve]
13 | C=C[C@H]1CN2CC[C@H]1C[C@@H]2CNC(=O)c1cc(OC)c(OC)c(OC)c1 | active: 44.7 µM
14 | O=C(NC[C@H]1C[C@@H]2CCN1C[C@@H]2CN1CCCCC1)Nc1ccccc1 | inactive
15 | C=C[C@H]1CN2CC[C@H]1C[C@@H]2CNCc1ccc(SC)cc1 | inconclusive: 112 µM [inhibitor, partial curve, poor fit]
16 | CCC(CC)c1cc([C@H]2CN3CC[C@H]2C[C@@H]3CNS(=O)(=O)c2ccccc2C#N)nc(-c2ccncc2)n1 | inconclusive: 28.2 µM [inhibitor, full curve, poor fit]
17 | N#CC1(c2ccccc2)CCN(C(=O)c2ccc3nccn3c2)CC1 | inactive
18 | CC(=O)NCCNC(=O)[C@H]1CN2CCC1C[C@@H]2Cn1cc(-c2ccc(C(C)(C)C)cc2)nn1 (stereo partly specified) | inactive
19 | Cc1nc(-c2cccs2)cc([C@H]2CN3CC[C@H]2C[C@@H]3CNS(C)(=O)=O)n1 | inconclusive: 112 µM [inhibitor, partial curve, poor fit]
20 | COc1cc2c(cc1OC1CCCC1)NC(=O)C21CCN(C(=O)c2cccc(C#N)c2)CC1 | active: 22.4 µM
21 | Cn1nc(-c2cccs2)cc1[C@H]1CN2CC[C@H]1C[C@@H]2CNC(=O)Nc1ccccc1 | active: 100 µM
22 | COc1cc2c(cc1CCc1ccccc1)N(C(=O)c1ccc3[nH]ccc3c1)CC21CCN(C(C)=O)CC1 | inconclusive: 14.1 µM [inhibitor, full curve]

Row | Structure (SMILES) | Potency
23 | O=C1Nc2ccccc2C12CCN(Cc1ccc(F)cc1)CC2 | inactive
24 | COc1cc2c(cc1OCc1ccccc1)NC(=O)C21CCN(c2ncccn2)CC1 | inconclusive: 39.8 µM [inhibitor, partial curve, poor fit]
25 | CC(C)NC(=O)NC[C@H]1C[C@@H]2CCN1C[C@@H]2c1cc(C2CCCCC2)nn1C | inconclusive: 126 µM [inhibitor, single point]
26 | O=C1Nc2ccccc2CC12CCCN(Cc1cccnc1)C2 (stereo unspecified) | inactive
27 | COc1ncccc1-c1cnc2[nH]cc(CC(=O)N3CCN(C)CC3)c2c1 | inconclusive: 56.2 µM [inhibitor, partial curve, poor fit]
28 | COc1ccccc1CNC(=O)[C@H]1CN2CC[C@H]1C[C@@H]2Cn1cc(-c2ccccc2)nn1 | inactive
29 | O=C(NCc1ccncc1)C1CNCC12CCOCC2 (stereo unspecified) | inactive
30 | CCC1(N2CCN(C(=O)COc3cccc(Cl)c3)CC2)CCN(S(C)(=O)=O)C1 (stereo unspecified) | inconclusive: 70.8 µM [inhibitor, partial curve, poor fit]
31 | N#Cc1cccc(NC(=O)NC[C@H]2C[C@@H]3CCN2C[C@@H]3CN2CCN(c3ccccc3)CC2)c1 | active: 22.4 µM
32 | Cc1cc(C(F)(F)F)nn1CC(=O)N1[C@H]2CC[C@@H]1c1cnc(-c3ccc(F)cc3)nc1C2 | inactive
33 | Cc1nc(-c2ccccc2)cc([C@H]2CN3CC[C@H]2C[C@@H]3CN(Cc2ccco2)Cc2ccco2)n1 | active: 22.4 µM
34 | COc1ccc(CC(=O)N2CCCN(CCn3nc4n(c3=O)CCCC4)CC2)cc1 | inactive
35 | O=c1c(-c2cccc(C(F)(F)F)c2)ccc2n1C[C@H]1C[C@@H]2CN(S(=O)(=O)c2cccs2)C1 | inactive
36 | COc1cc2c(cc1OCc1ccncc1)NC(=O)C21CCN(CC2CC2)CC1 | active: 100 µM
37 | COc1ccc(S(=O)(=O)NC[C@H]2C[C@@H]3CCN2C[C@@H]3CN2CCN(c3ccccn3)CC2)cc1 | inconclusive: 100 µM [inhibitor, single point]
38 | CCCc1nc(C(=O)N2C[C@@H](c3ccc(F)cc3)[C@@H]3[C@H]2C2CCN3CC2)cs1 | inactive
39 | O=C1NCCCCCCN(Cc2ccccn2)[C@H]2CCC[C@@H]12 | inconclusive: 50.1 µM [inhibitor, partial curve, poor fit]
40 | COc1ccc(-c2cc([C@H]3CN4CC[C@H]3C[C@@H]4CNS(=O)(=O)c3ccc(C)cc3)n(C)n2)cc1OC | active: 22.4 µM
41 | Cc1nc(-c2ccccc2)cc([C@H]2CN3CC[C@H]2C[C@@H]3CNC(=O)c2cccs2)n1 | inconclusive: 56.2 µM [inhibitor, partial curve, poor fit]
42 | C=C[C@H]1CN2CC[C@H]1C[C@@H]2CNC(=O)COc1ccccc1 | inactive
43 | O=C(c1ccc(F)cc1)N1C[C@@H]2C[C@H](C1)c1c(-c3cc4ccccc4s3)ccc(=O)n1C2 | inactive
44 | CCC(CC)c1cc([C@H]2CN3CC[C@H]2C[C@@H]3CNC(=O)NCc2ccccc2)nc(-c2ccncc2)n1 | active: 20 µM

Row | Structure (SMILES) | Potency
45 | COc1ccc2c(c1)C1(CCN(C(=O)C(C)(C)C)C1)C(=O)N2C (stereo unspecified) | inactive
46 | Cc1cccc(OCC(=O)N2[C@H]3CC[C@@H]2c2cnc(-c4ccccc4)nc2C3)c1 | inconclusive: 44.7 µM [inhibitor, partial curve, poor fit]
47 | O=S(=O)(NC[C@H]1C[C@@H]2CCN1C[C@@H]2CN1CCOCC1)c1cccs1 | inactive
48 | CCOC(=O)[C@H]1CN(C(=O)COc2ccccc2)[C@]2(C)C(=O)N(CCOC(C)=O)c3ccccc3[C@H]12 | inconclusive: 70.8 µM [inhibitor, single point]
49 | Cc1nc(-c2ccc(F)cc2)cc([C@H]2CN3CC[C@H]2C[C@@H]3CNC(=O)NCc2ccccc2)n1 | inconclusive: 56.2 µM [inhibitor, partial curve, poor fit]
50 | CCC(CC)c1cc([C@H]2CN3CC[C@H]2C[C@@H]3COC(=O)Nc2ccc(C(C)(C)C)cc2)nc(-c2ccncc2)n1 | active: 5.01 µM
51 | CSc1cccc(NC(=O)NC[C@H]2C[C@@H]3CCN2C[C@@H]3CN2CCN(c3ccccc3)CC2)c1 | active: 20 µM
52 | O=C(NC1CCCCC1)[C@H]1CN2CC[C@H]1C[C@@H]2Cn1cc(CCO)nn1 | inactive
53 | N#Cc1cccc(NC(=O)NC[C@H]2C[C@@H]3CCN2C[C@@H]3CN2CCSCC2)c1 | inconclusive: 112 µM [inhibitor, partial curve, poor fit]
54 | COc1ccccc1N1CCN(C[C@H]2CN3CC[C@H]2C[C@@H]3CNC(=O)Nc2cccc(C#N)c2)CC1 | inactive
55 | C#C[C@H]1CN2CC[C@H]1C[C@@H]2CNC(=O)COCC(=O)O | inconclusive: 141 µM [inhibitor, partial curve, poor fit]
56 | CCOC(=O)[C@H]1CN([S+](=O)([O-])c2cccs2)[C@]2(C)C(=O)N(CCOC)c3ccccc3[C@H]12 | inconclusive: 35.5 µM [inhibitor, single point]
57 | CS(=O)(=O)NC[C@H]1C[C@@H]2CCN1C[C@@H]2CN1C[C@@H]2C[C@H](C1)c1cccc(=O)n1C2 | inactive
58 | Cn1nc(C2CCNCC2)n(C2CCCC2)c1=O | inactive
59 | O=C(Nc1ccccc1)[C@H]1CN2CCC1C[C@@H]2Cn1cc(CSc2ccccc2)nn1 (stereo partly specified) | active: 100 µM
60 | CN1CCC(NCC2(CO)C[C@@H](O)[C@@H](O)C2)CC1 (stereo partly specified) | inactive
61 | COc1cc2c(cc1OCc1ccccc1)N(C(=O)c1ccccc1OC)CC21CCN(C)CC1 | active: 28.2 µM
62 | Cc1nc(-c2ccco2)cc([C@H]2CN3CC[C@H]2C[C@@H]3CNC(=O)C2CCCCC2)n1 | inconclusive: 100 µM [inhibitor, partial curve]
63 | COc1cc2c(cc1CCc1ccccc1)N(C(=O)Cc1ccc3c(c1)OCO3)CC21CCN(C(C)=O)CC1 | inconclusive: 31.6 µM [inhibitor, full curve]
64 | O=C(c1ccccc1)N1CCC(C(=O)O)(c2ccccc2)CC1 | inactive
65 | Cn1nc(C2CCCCC2)cc1[C@H]1CN2CC[C@H]1C[C@@H]2CNC(=O)c1cccs1 | inconclusive: 100 µM [inhibitor, partial curve, poor fit]
66 | CCOC(=O)[C@H]1CN(C(=O)c2ccc(OC)c(OC)c2)[C@]2(C)C(=O)N(CC3CC3)c3ccccc3[C@H]12 | inconclusive: 44.7 µM [inhibitor, partial curve, poor fit]
